# Experimental data published in PubChem BioAssay AID686979 (National Center for Advancing Translational Sciences (NCATS), 2013).
# Several values for one entry are separate records, joined by “and”; a condition that tells them apart may be missing. Identical values can stand only once. Among all 420,000 compounds or so, about 50,000 (12%) were called active. Inconclusive results, whose numbers are uncertain, are shown with a selection of clear calls. Calls come from the whole dose curve; as a rule, active = well fitted inhibition curve with a large enough effect; inconclusive = small, poorly fitted or top-dose-only effect; inactive = flat fitted curve, though single readings scatter. Where the call is inconclusive, the potency comes from a doubtful curve fit.
# Assay: qHTS for Inhibitors of human tyrosyl-DNA phosphodiesterase 1 (TDP1): qHTS in cells in presence of CPT; note: nearly all actives have a fitted effect of over 55% in size
# Details: chicken DT40 Tdp1-/-;hTDP1 cells + 20 nM CPT, ATP luminescence, 48 h; activity change, negative = growth inhibition: at 46.2 µM (top of the series) unless noted
# Summary of the method: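 Chicken DT40 Tdp1-/- cells complemented with human TDP1, 400 cells/well, exposed to compounds plus 20 nM camptothecin for at least 48 h at 37 C; viability read as ATP content by CellTiter-Glo luminescence.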
# % is set by controls: 0 for no effect and ±100 for the full control effect; potency is the fitted concentration of half-maximal effect; tags give direction and shape of the fitted curve.
SMILES,Potency,"activity change, negative = growth inhibition"
CC1=C([N+](=O)[O-])C(c2ccc3c(c2)OCO3)N(C)C(=O)N1C (stereo not drawn),active: 8.2 µM,–
COC(=O)c1c(NC(=O)COC(=O)CC(NC(C)=O)c2ccccc2)sc(C)c1C (stereo not drawn),inactive,–
CS(=O)(=O)c1ccccc1-c1nc(-c2ccc(C(F)(F)F)cc2)no1,"inconclusive: 29.1 µM [inhibitor, single point]",–
CCOC(=O)c1ccccc1NC(=O)CSc1nnc(CC)n2c1cc1occc12,"inconclusive: 29.1 µM [inhibitor, single point]",–
O=C(C#Cc1ccccc1)c1ccc([N+](=O)[O-])cc1,active: 0.651 µM,–
O=C(Nc1cccc2ccccc12)c1csc(COCCO)n1,inactive,–
O=C(Nc1ccncc1)c1cc(S(=O)(=O)N2CCCCC2)ccc1Cl,active: 9.2 µM,–
Cc1cc(C)c(S(=O)(=O)Nc2ccc(-c3ccc(N4CCCCCC4)nn3)cc2)c(C)c1,"inconclusive: 18.4 µM [inhibitor, single point]",–
CCOc1cc(N2CCOCC2)c(OCC)cc1NC(=O)COC(=O)c1ccc(Cl)nc1,inactive,–
O=C1CC2(CCCCCC2)Oc2ccccc21,"inconclusive: 29.1 µM [inhibitor, single point]",–
COc1ccc(C(N)CCc2ccco2)cc1 (stereo not drawn),–,inconclusive: -31.9% [inhibitor]
Cc1ccc(S(=O)(=O)N2CCOCC2)cc1C(=O)Nc1nc(-c2ccccn2)cs1,active: 5.17 µM,–
NC(=O)c1c(NC(NC(=O)c2ccco2)C(=O)c2ccc(Cl)cc2)sc2c1CCCC2 (stereo not drawn),"inconclusive: 29.1 µM [inhibitor, single point]",–
CC(=O)Nc1cccc(NC(=O)C(=O)NCC(c2ccco2)N2CCc3ccccc3C2)c1 (stereo not drawn),active: 16.4 µM,–
CC(=O)c1sc2nc(CSc3nnnn3-c3ccccc3)[nH]c(=O)c2c1C,inactive,–
CN(CC(=O)NCc1ccccc1)S(=O)(=O)c1ccc2[nH]c3c(c2c1)CCCC3,"inconclusive: 25.9 µM [inhibitor, single point]",–
Cc1ccc(OC(=O)N(C)C[C@@H]2OCc3cn(nn3)CCCC(=O)N([C@H](C)CO)C[C@H]2C)cc1,inactive,–
COc1cc(C(=O)Nc2ccc(S(=O)(=O)NC(C)C)cc2)cc(OC)c1OC,inactive,–
Cc1cccc(C(=O)NC(=S)NNC(=O)c2ccccc2Cl)c1,"inconclusive: 29.1 µM [inhibitor, single point]",–
CC1CCCN(c2c([N+](=O)[O-])cc(C(=O)O)cc2[N+](=O)[O-])C1 (stereo not drawn),inactive,–
CCCCC[C@@H](C)N1C[C@H](COCc2ccccc2)Oc2cc(N3CCC[C@H]3CO)ccc2S1(=O)=O,active: 9.2 µM,–
O=C(NC(=S)Nc1nc(-c2ccc(Br)cc2)cs1)c1ccco1,inactive,–
COC(=O)c1ccc(OCC2c3cc(OC)c(OC)cc3CCN2C(=O)Cc2ccccc2)cc1 (stereo not drawn),"inconclusive: 23.1 µM [inhibitor, single point]",–
CC(C)Oc1cccc(C(=O)C2CCCN(S(=O)(=O)C(C)C)C2)c1 (stereo not drawn),"inconclusive: 29.1 µM [inhibitor, single point]",–
COc1cc(Cl)ccc1OC1(C)CCN(Cc2cccc(OC)c2OC)C1 (stereo not drawn),active: 13 µM,–

SMILES,Potency,"activity change, negative = growth inhibition"
CN(Cc1ccccc1)Cc1nc2c(c(=O)n(C)c(=O)n2C)n1Cc1ccccc1Cl,active: 25.9 µM,–
CCN(CC)C(=O)C1CCN(S(=O)(=O)c2ccc3oc4ccccc4c3c2)CC1,active: 20.6 µM,–
CC(=O)N1N=C(c2ccc(C)o2)CC1c1ccc(Br)cc1 (stereo not drawn),–,inconclusive: -36.9% [inhibitor]
O=C(Nc1cccc(C(=O)NC2CCCC2)c1)c1ccccc1,"inconclusive: 16.4 µM [inhibitor, partial curve]",–
C#CCOC(=O)c1cc(Cl)c(=O)n(Cc2ccc(Cl)cc2Cl)c1,inactive,–
O=c1c(Cl)c(NCc2ccccc2Cl)cnn1C12CC3CC(CC(C3)C1)C2,"inconclusive: 20.6 µM [inhibitor, single point]",–
CC(=O)c1c(C)[nH]c(C(=O)Nc2nccs2)c1C,active: 11.6 µM,–
Cc1ccccc1CC(=O)NC1CCCc2ccccc21 (stereo not drawn),"inconclusive: 14.6 µM [inhibitor, partial curve]",–
CN1CCc2nc3sc(C(=O)C45CC6CC(CC(C6)C4)C5)c(N)c3cc2C1,"inconclusive: 20.6 µM [inhibitor, single point]",–
O=C1/C(=C/c2ccc(F)cc2)SC(=S)N1CCCC(=O)N1CCCCC1CCO (stereo not drawn),active: 16.4 µM,–
NC(c1csc(Nc2cc(Oc3ccccc3)ncn2)n1)C1CCCCC1 (stereo not drawn),"inconclusive: 29.1 µM [inhibitor, single point]",–
CCOc1ccc(NC(=O)CSc2nc(N3CCOCC3)nc(N3CCOCC3)n2)cc1,inactive,–
O=C(c1ccc(Cl)s1)N1CCN(S(=O)(=O)c2ccc(Cl)cc2)CC1,"inconclusive: 29.1 µM [inhibitor, single point]",–
COC(=O)c1cccc(NC(=O)/C=C/c2cccc([N+](=O)[O-])c2)c1,"inconclusive: 35.5 µM [inhibitor, single point]",–
CC(NC(=S)Nc1ccc(Cl)cc1Cl)C(c1cccs1)N1CCCC1 (stereo not drawn),"inconclusive: 25.9 µM [inhibitor, single point]",–
COc1ccc(-c2cn3nc(N4CCCC(C(=O)Nc5cc(C)cc(C)c5)C4)sc3n2)cc1 (stereo not drawn),active: 8.2 µM,–
COc1ccccc1N1CCN(c2ncnc3c2cnn3-c2cccc(Cl)c2)CC1,"inconclusive: 5.17 µM [inhibitor, single point]",–
COc1ccc(-c2[nH]c(-c3cccc(OC)c3)nc2SCC(=O)NC2CCCC2)cc1,active: 20.6 µM,–
COc1ccccc1CN(C(=O)CNC(=O)c1ccco1)C(C(=O)NCC1CCCO1)c1ccc(OC)c(OC)c1 (stereo not drawn),inactive,–
CC(=O)N1c2ccc(S(=O)(=O)N3CCCC(C(=O)Nc4ccc(F)cc4)C3)cc2CC1C (stereo not drawn),"inconclusive: 4.61 µM [inhibitor, partial curve]",–
CCN(Cc1ccccc1)S(=O)(=O)c1cc(C(=O)Nc2cc(Cl)cc(Cl)c2)ccc1F,active: 6.51 µM,–
Cc1ccc(C2=NC3(CCCC3)N=C2SCC(=O)Nc2ccc3c(c2)OCCO3)cc1,"inconclusive: 29.1 µM [inhibitor, single point]",–
COc1cc(C)nc(N2CCCC(C(=O)Nc3cccc(Cl)c3Cl)C2)n1 (stereo not drawn),inactive,–
Cc1ncc2c(c1OC(=O)c1ccccc1)COC(C)(C)OC2,"inconclusive: 25.9 µM [inhibitor, single point]",–
CCOc1ccc(OCc2ccc(C(=O)NCc3ccncc3)o2)cc1,active: 16.4 µM,–

SMILES,Potency,"activity change, negative = growth inhibition"
CSc1ccc(OC2(C)CCN(Cc3ccc(OC(C)C)cc3)C2)cc1 (stereo not drawn),"inconclusive: 20.6 µM [inhibitor, single point]",–
CCOC(=O)/C(=N/Nc1ccc(Br)cc1)N1CC(C)OC(C)C1 (stereo not drawn),inactive,–
CSc1ccc(/C=c2\s/c(=C\C(=O)C(C)(C)C)n(CC(=O)NCCC3=CCCCC3)c2=O)cc1,"inconclusive: 29.1 µM [inhibitor, single point]",–
O=C(OCC(=O)N(CCc1ccccc1)Cc1ccccc1)c1ccccc1O,active: 18.4 µM,–
C#C[C@]1(OC(C)=O)CC[C@H]2[C@@H]3CCC4=C[C@@H](OC(C)=O)CC[C@@H]4[C@H]3CC[C@@]21C,"inactive and inconclusive: 29.9 µM [inhibitor, single point]",–
CCN(CC)S(=O)(=O)c1ccc(C(=O)N2CC(=O)Nc3ccc(F)cc3C2c2ccccc2)cc1 (stereo not drawn),"inconclusive: 23.1 µM [inhibitor, single point]",–
CC(NC(=O)c1ccccc1F)C12CC3CC(CC(C3)C1)C2 (stereo not drawn),active: 20.6 µM,–
Cc1cc(C)c(C)c(C(=O)COC(=O)CNC(=O)CNC(=O)c2ccco2)c1C,inactive,–
COc1ccccc1-c1csc(NC(=O)c2ccc(N3C(=O)CCC3=O)cc2)n1,"inconclusive: 29.1 µM [inhibitor, single point]",–
Clc1ccc(-c2ccc(/C=N/Nc3nncc(-c4ccccc4)n3)o2)cc1,"inconclusive: 8.2 µM [inhibitor, single point]",–
Cc1cc(NC(=O)c2ccc(C)c(C)c2)no1,inactive,–
CCCCCCCCCC[n+]1ccc(/C=C/c2c[nH]c3ccccc23)cc1,active: 0.316 µM,–
Cc1c(C(=O)c2ccc(F)cc2F)c2ccccn2c1CCc1ccccn1,"inconclusive: 18.4 µM [inhibitor, single point]",–
O=C(N=C1SC2CS(=O)(=O)CC2N1Cc1ccc(Cl)cc1)C1CCCO1 (stereo not drawn),inactive,–
CCOCCCn1c(SCC(=O)Nc2cc(OC)ccc2OC)nc2ccccc2c1=O,active: 13 µM,–
N#Cc1cccnc1N1CCN(C(C(=O)NC2CCCC2)c2ccc(F)cc2)CC1 (stereo not drawn),"inconclusive: 18.4 µM [inhibitor, partial curve, poor fit]",–
CC(C)(C)OC(=O)N1CCC(c2c(C(=O)NCCc3ccccc3)cnn2-c2ccc(F)cc2)CC1,"inconclusive: 29.1 µM [inhibitor, single point]",–
CC(C)c1ccc(NC(=O)c2ccc(-c3ccnn3C)c3ccoc23)cc1,active: 16.4 µM,–
Cc1cc2cc(CN(Cc3cccs3)C(c3nnnn3C(C)(C)C)C(C)C)c3nnnn3c2cc1C (stereo not drawn),active: 14.6 µM,–
CCCCN(C(=O)Cc1ccc(S(=O)(=O)N2CCOCC2)s1)c1c(N)n(CCCC)c(=O)[nH]c1=O,inactive,–
COCCC(=O)Nc1ccc2c(c1)CN(C(=O)c1ccc(CSC)o1)CC2,inactive,–
CC(=O)N1c2ccc(S(=O)(=O)NCC3CCC(C(=O)Nc4cc(C)ccc4C)CC3)cc2CC1C (stereo not drawn),active: 23.1 µM,–
Cn1c(N)c(C(=O)COC(=O)c2ccccc2C(=O)c2ccccc2)c(=O)n(C)c1=O,"inconclusive: 29.1 µM [inhibitor, single point]",–
